{"source": "patent US10105442B2", "about": "“Treatment of diabetes type 1 using GLP-1 and anti-IL-21” (Novo Nordisk A/S, priority 2014, dated 2018)", "origin": "cited, not measured here", "molecules": {"B1": {"name": "mAb 14: human anti-IL-21 antibody competing with γC, WO2010055366 clone 366.328.10.63, light and heavy chains SEQ ID NOs 4+5 (IgG4) (antibody)", "heavy": "EVQLVESGGGLVKPGGSLRLSCAASGFIFSSYSMNWVRQAPGKGLEWVSSITSGSYYIHYADSVKGRFTISRDNAKNSLYLQMNSLRAEDTAVYYCVRERGWGYYGMDVWGQGTTVTVSSASTKGPSVFPLAPCSRSTSESTAALGCLVKDYFPEPVTVSWNSGALTSGVHTFPAVLQSSGLYSLSSVVTVPSSSLGTKTYTCNVDHKPSNTKVDKRV[sequence of human IgG4 Fc omitted]", "light": "AIQLTQSPSSLSASVGDRVTITCRASQDIDSALAWYQQKPGKAPKILIHDASSLESGVPSRFSGSGSGTDFTLTISSLQPEDFATYYCQQFNSYPYTFGQGTKLEIKRTVAAPSVFIFPPSDEQLKSGTASVVCLLNNFYPREAKVQWKVDNALQSGNSQESVTEQDSKDSTYSLSSTLTLSKADYEKHKVYACEVTHQGLSSPVTKSFNRGEC", "modifications": "“mAb 14” heavy chain of the IgG4 isotype; “mAb 14”, light chain"}}, "target": "IL-21 (Homo sapiens, UniProt Q9HBE4)", "sequence (Q9HBE4 25-162)": "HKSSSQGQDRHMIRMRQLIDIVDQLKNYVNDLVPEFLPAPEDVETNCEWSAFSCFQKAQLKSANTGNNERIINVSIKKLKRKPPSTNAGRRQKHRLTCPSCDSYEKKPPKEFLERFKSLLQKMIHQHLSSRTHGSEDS", "conditions": "cited from earlier work"}
{"molecule": "B1", "values": [{"measurement": "Affinity to IL-21 (in words)", "result": "in the nanomolar range"}]}
